Source: PubChem BioAssay AID1347165 (National Center for Advancing Translational Sciences (NCATS), 2019)
About 5,700 (2.6%) of roughly 220,000 compounds were called active. This list was built around the results that the source calls inconclusive (neither active nor inactive); the mix of calls is not that of the screen. The call rests on the fitted dose curve; in most records, active means well fitted inhibition curve with a large enough effect; inconclusive means small, poorly fitted or top-dose-only effect; inactive means no such curve, though single readings can be large or run the other way. Potencies beside an inconclusive call are fits to weak or partial responses and may not hold up.

target: Lysine-specific demethylase 5B (Homo sapiens) (UniProt Q9UGL1); assay: Primary screen for KDM5B Histone Demethylases FDH-coupled qHTS; settings: FDH-coupled NADH fluorescence (FDH is formaldehyde dehydrogenase); activity change, negative = inhibition: at 57.7 µM (top of the series); further: nearly all actives have a fitted effect of over 70% in size; on activity change, negative = inhibition: 0% is about no effect
Outline: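 qHTS format, multiple compound concentrations. Buffer 50 mM HEPES pH 7.5/0.01% Tween-20; 200 nM KDM5BΔAP final; 10 min compound preincubation; substrate-mix levels 12.5 µM peptide, 25 µM α-KG, 0.25 mM NAD⁺; 30 min RT; ΔRFU.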
Potency means the concentration at half of the fitted maximal effect; tags describe the fitted curve by direction and shape.

Chain of UniProt Q9UGL1 (Q9UGL1 whole entry, looked up): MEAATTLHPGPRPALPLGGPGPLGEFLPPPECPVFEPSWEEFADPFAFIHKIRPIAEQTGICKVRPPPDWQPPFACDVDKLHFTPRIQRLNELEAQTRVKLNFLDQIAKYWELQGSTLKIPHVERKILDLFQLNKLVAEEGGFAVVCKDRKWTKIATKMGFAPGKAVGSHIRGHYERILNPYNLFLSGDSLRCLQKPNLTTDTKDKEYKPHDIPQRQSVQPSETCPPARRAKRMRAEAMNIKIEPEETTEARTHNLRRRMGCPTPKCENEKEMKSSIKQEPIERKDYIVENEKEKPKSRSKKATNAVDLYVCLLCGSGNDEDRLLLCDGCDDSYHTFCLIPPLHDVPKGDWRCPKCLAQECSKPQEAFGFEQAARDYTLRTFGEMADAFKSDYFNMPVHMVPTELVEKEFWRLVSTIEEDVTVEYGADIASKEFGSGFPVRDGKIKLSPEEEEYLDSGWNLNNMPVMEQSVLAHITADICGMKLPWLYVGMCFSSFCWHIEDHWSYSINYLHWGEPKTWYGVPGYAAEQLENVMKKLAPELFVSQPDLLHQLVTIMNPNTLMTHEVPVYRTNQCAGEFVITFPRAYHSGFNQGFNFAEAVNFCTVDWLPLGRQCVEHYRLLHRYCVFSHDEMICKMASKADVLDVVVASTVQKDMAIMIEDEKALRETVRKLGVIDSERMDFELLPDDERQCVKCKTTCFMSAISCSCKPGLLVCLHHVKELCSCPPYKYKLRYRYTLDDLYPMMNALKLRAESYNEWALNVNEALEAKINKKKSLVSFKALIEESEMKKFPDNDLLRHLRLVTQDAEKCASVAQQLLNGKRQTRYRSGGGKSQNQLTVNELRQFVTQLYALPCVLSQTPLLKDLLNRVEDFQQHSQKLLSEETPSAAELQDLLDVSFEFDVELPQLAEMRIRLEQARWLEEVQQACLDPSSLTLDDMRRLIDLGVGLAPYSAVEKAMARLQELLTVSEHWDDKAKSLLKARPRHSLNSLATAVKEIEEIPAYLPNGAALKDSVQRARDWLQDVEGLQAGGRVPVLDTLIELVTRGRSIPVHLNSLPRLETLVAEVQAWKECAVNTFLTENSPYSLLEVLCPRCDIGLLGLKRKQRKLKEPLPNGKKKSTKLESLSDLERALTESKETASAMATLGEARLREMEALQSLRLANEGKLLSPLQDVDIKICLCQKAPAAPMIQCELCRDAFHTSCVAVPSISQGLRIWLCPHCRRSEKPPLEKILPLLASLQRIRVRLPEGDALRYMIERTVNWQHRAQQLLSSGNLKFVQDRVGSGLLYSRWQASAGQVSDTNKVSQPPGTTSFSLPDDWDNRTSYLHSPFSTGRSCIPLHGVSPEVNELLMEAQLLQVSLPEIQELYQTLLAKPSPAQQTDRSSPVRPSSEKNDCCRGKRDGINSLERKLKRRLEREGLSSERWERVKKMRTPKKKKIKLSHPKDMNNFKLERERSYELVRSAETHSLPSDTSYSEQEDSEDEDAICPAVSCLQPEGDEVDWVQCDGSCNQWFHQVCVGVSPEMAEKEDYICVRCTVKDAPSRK

SMILES	activity change, negative = inhibition	Potency
CNC(=O)NC(=O)CN1CCN(C(=O)Cc2cccc(OC)c2)CC1	inactive: 7.3%	
N#Cc1cc2c(cc1C(=O)c1cccs1)OCCO2	inactive: -4.06%	
COc1ccccc1-c1cc([C@H]2CN3CC[C@H]2C[C@@H]3COC(=O)Nc2ccc(C(C)(C)C)cc2)n(C)n1		inconclusive: 22.4 µM [inhibitor, partial curve, poor fit]
CN1C(=O)CO[C@H]2CN(Cc3ncc[nH]3)C[C@H]21		active: 35.5 µM
Cc1ccc(CC(=O)N2CCN(C3CCN(Cc4cccnc4)C3=O)CC2)cc1 (stereo unspecified)	inactive: 455%	
COCCC(=O)Nc1ccc2n(c1=O)C[C@H]1C[C@@H]2CN(CCCc2ccccc2)C1		active: 31.6 µM
O=C1NCC2(CCCN(Cc3cc(=O)c4cccc(F)c4[nH]3)C2)O1 (stereo unspecified)		inconclusive: 39.8 µM [inhibitor, single point]
Cc1nc(-c2ccccc2)cc([C@H]2CN3CC[C@H]2C[C@@H]3CNC(=O)NC(C)C)n1		inconclusive: 31.6 µM [inhibitor, partial curve]
COc1ccc(N2CC3CCC(C2)N3CC(F)(F)F)cn1		active: 56.2 µM
COCCNC(=O)NC(=O)CCl	inactive: 0.558%	
Cn1c(O)c(/C=N/NC(=O)c2ccncc2)c(=O)n(C)c1=S		inconclusive: 14.1 µM [inhibitor, partial curve, poor fit]
Cc1ccc(NC(=O)c2cn(Cc3ccccc3)nn2)c(C)c1		inconclusive: 39.8 µM [inhibitor, single point]
C=C[C@H]1CN2CC[C@H]1C[C@@H]2CNC(=O)Nc1cccc(SC)c1	inactive: -1.95% [at 86.2 µM]	
CN(C)C(=O)[C@H]1CN2CCC1C[C@@H]2Cn1cc(-c2cccc(N)c2)nn1 (stereo partly specified)		inconclusive: 39.8 µM [inhibitor, partial curve, poor fit]
COc1ccc(C(C#N)C(C)=O)cc1OC (stereo unspecified)	inactive: 14.2%	
COc1cccc(CNCCc2ccc(Cl)cc2)c1		inconclusive: 10 µM [inhibitor, partial curve, poor fit]
CN1CCN(C(=O)Cc2c[nH]c3ncc(-c4ccccc4F)cc23)CC1		active: 35.5 µM
O=C(Cc1cccc(F)c1)N1CCN(C2CCN(Cc3cccnc3)C2=O)CC1 (stereo unspecified)	inactive: -11.2%	
Cc1cc(C)c2[nH]c(C(=O)N3CCC(C#N)(c4ccccc4)CC3)c(C)c2c1		inconclusive: 22.4 µM [inhibitor, partial curve]
O=C(c1ccccc1)N1C[C@@H]2C[C@H](C1)c1c(-c3cccnc3)ccc(=O)n1C2		inconclusive: 39.8 µM [inhibitor, single point]
COc1ccc(NC(=O)NC[C@H]2C[C@@H]3CCN2C[C@@H]3CN2CCN(c3ccccc3OC)CC2)cc1	inactive: 4.87%	
